Data as given in PubChem BioAssay AID504339 (National Center for Advancing Translational Sciences (NCATS), 2011).
Screen size: about 390,000 compounds; about 17,000 (4.4%) were called active. The inconclusive results got no clear call from the source; some entries with a clear call stand among them for comparison. The call rests on the fitted dose curve; in most records, active means well fitted inhibition curve with a large enough effect; inconclusive means small, poorly fitted or top-dose-only effect; inactive means no such curve, though single readings can be large or run the other way. Potencies beside an inconclusive call are fits to weak or partial responses and may not hold up.

target: Lysine-specific demethylase 4A (Homo sapiens) (UniProt O75164); assay: qHTS Assay for Inhibitors of JMJD2A-Tudor Domain; settings: AlphaScreen JMJD2A-Tudor / H3K4me3 peptide binding; activity change, negative = inhibition: at 114 µM (top of the series); further: nearly all actives have a fitted effect of over 50% in size
Chain of UniProt O75164 (O75164 whole entry, looked up, the tested form may be a part): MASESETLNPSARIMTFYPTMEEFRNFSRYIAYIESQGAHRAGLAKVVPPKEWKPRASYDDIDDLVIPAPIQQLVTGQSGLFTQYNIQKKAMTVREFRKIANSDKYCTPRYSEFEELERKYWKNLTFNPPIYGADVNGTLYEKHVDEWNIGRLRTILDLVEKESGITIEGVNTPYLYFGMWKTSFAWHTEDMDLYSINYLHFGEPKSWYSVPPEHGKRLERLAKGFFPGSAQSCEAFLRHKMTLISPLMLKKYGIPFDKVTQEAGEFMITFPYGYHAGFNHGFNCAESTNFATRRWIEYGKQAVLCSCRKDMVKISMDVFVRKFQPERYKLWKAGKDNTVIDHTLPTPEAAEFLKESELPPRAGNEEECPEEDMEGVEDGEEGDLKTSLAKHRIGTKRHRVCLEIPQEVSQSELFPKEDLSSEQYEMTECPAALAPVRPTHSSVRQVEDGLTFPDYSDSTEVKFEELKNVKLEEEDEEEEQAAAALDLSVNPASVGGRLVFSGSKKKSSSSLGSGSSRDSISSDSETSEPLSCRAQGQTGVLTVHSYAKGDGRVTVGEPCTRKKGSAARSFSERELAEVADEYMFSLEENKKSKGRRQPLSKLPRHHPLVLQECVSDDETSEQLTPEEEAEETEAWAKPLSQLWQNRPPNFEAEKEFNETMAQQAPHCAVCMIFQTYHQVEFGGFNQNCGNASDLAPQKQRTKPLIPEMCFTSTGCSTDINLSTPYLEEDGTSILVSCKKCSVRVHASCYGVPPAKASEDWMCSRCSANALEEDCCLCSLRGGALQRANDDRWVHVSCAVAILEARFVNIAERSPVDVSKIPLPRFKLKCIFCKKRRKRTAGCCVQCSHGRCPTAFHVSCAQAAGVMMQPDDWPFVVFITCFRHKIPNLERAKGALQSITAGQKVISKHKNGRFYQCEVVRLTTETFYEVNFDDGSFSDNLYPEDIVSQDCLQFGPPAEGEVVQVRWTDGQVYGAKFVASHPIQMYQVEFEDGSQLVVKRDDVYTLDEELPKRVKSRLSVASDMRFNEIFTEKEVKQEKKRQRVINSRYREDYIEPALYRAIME
On the % scale 0 is the no-effect control and ±100 the full control effect; potency means the concentration at half of the fitted maximal effect; tags describe the fitted curve by direction and shape.

| SMILES | Potency | activity change, negative = inhibition |
| --- | --- | --- |
| O=C(N/C(=C/c1cccc(Br)c1)c1nc(=S)[nH][nH]1)c1ccccc1 | inconclusive: 22.4 µM [inhibitor, full curve] |  |
| CCn1c(N2CCC(C)CC2)nc2c1c(=O)n(C)c(=O)n2C |  | inactive: -3.52% |
| CC1CCc2c(sc(N)c2C(N)=O)C1 (stereo not given) | inconclusive: 56.2 µM [inhibitor, partial curve] |  |
| Cc1ccc(NC(=O)CN(C)C(=O)c2cccc(S(=O)(=O)NCc3ccco3)c2)cc1 | inconclusive: 12.6 µM [inhibitor, partial curve] |  |
| CCCCNC(=O)CCCCCn1c(=O)[nH]c2ccccc2c1=O |  | inactive: -3.96% |
| O=C(NCCN1CCOCC1)C1CCN(Cc2ccccc2O)CC1 | active: 1.41 µM |  |
| O=C(CSCc1ccccc1)Nc1cccc(F)c1 | active: 44.7 µM |  |
| CCCOc1ccc(C2C(C(=O)/C=C/c3ccco3)=C(O)C(=O)N2CCN2CCOCC2)cc1OC (stereo not given) | inconclusive: 28.2 µM [inhibitor, full curve] |  |
| Cc1ccc(NC(=O)CSc2n[nH]c(-c3ccccn3)n2)cc1 | active: 3.98 µM |  |
| Cc1cc(=O)oc2c(C)c(OCC(=O)NCC3CCC(C(=O)O)CC3)ccc12 (stereo not given) |  | inactive: -16.3% |
| COc1cc(/C=C2/SC(=S)N(Cc3ccccc3)C2=O)ccc1OS(C)(=O)=O | inconclusive: 10 µM [inhibitor, full curve] |  |
| CCCN(CCC)c1ccc(C2N=C(N)Nc3nc4ccccc4n32)cc1 (stereo not given) | inconclusive: 44.7 µM [inhibitor, partial curve] |  |
| N#C/C(=C\c1ccc(OC(=O)c2ccc(Cl)s2)cc1)c1nc2ccccc2[nH]1 | inconclusive: 3.55 µM [inhibitor, full curve, poor fit] |  |
| CC(=O)Nc1sc(N/N=C/c2ccc(C)cc2)nc1-c1ccc(C)cc1 | active: 44.7 µM |  |
| CCOC(=O)c1c(NC(C)=O)sc2c1CCC(C=NCCCN(CC)CC)=C2Sc1ccccc1 | inconclusive: 44.7 µM [inhibitor, partial curve] |  |
| N#CC1=C2N=C(N)c3ccccc3N2C2=C(C(=O)CCC2)C1c1ccccc1F (stereo not given) | inconclusive: 100 µM [inhibitor, partial curve] |  |
| O=C(NCc1ccccc1)c1ccc(NC(=O)N2CC3CCCN3c3ccccc32)cc1 (stereo not given) | inconclusive: 44.7 µM [inhibitor, partial curve] |  |
| COc1ccc(CC(=O)N/N=C(\C)c2ccccn2)cc1 | active: 89.1 µM |  |
| O=C(OCC(=O)c1ccc(Cl)cc1Cl)c1ccc2c(c1)C(=O)N(c1cccc3ncccc13)C2=O |  | inactive: -23.3% |
| O=[N+]([O-])c1ccccc1NC1CCN(Cc2ccccc2)CC1 | inconclusive: 44.7 µM [inhibitor, partial curve] |  |
